# Experimental data published in article PMC4336329 (PLoS ONE, 2015).
# Screen size: about 310,000 compounds; about 14,000 (4.5%) showed an effect of 50% or more. Effects have a minus sign here. The list shows a part of the results.
# Target: human ether-à-go-go-related gene (hERG) potassium channel (human, UniProt Q12809)
# Assay: primary screen, population patch clamp on CHO cells stably expressing hERG
# 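Note: peak tail current of the secondary pulse compared with the same well before compound.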
# Sequence of human ether-à-go-go-related gene (hERG) potassium channel (Q12809 whole entry, looked up): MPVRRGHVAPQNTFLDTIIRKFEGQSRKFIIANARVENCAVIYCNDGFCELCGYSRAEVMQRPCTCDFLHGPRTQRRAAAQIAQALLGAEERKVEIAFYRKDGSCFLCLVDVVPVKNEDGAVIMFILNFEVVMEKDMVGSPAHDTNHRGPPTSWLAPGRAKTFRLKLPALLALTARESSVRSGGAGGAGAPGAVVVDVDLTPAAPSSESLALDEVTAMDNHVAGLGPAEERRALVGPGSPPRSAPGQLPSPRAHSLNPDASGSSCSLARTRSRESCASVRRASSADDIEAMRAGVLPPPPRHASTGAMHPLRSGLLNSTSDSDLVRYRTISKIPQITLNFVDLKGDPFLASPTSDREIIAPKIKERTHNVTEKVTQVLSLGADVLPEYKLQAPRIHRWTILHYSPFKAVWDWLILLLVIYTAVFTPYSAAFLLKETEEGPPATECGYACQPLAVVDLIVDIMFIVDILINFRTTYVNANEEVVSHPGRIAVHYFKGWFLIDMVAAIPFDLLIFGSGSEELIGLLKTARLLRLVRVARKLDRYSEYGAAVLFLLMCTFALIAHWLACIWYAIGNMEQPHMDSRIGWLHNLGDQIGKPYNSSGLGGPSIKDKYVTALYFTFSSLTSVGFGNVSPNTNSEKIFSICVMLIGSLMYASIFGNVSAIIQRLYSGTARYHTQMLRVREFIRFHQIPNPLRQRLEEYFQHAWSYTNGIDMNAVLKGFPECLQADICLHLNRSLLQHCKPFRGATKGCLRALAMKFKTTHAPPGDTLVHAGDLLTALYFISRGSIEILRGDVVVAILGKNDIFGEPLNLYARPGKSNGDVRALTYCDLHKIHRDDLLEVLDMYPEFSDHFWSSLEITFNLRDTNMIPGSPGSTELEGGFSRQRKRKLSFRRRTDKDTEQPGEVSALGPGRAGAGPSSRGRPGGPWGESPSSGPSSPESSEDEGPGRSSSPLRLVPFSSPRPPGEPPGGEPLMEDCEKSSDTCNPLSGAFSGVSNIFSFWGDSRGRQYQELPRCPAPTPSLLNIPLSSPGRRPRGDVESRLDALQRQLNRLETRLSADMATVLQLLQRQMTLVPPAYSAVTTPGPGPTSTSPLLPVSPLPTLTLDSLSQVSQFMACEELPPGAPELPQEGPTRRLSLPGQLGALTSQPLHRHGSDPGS
row,Compound,"hERG current change (%, negative = inhibition) at 10uM"
1,CCCNC(=S)N1CC2(C)CN(C(=O)C(=O)OC)CC(C)(C1)C2=O,11.8%
2,CCN(Cc1ccccc1)S(=O)(=O)c1cc(C(=O)NCCCN(C)C)ccc1OC,-50.3%
3,O=C(Nc1ccccc1Br)c1cc[n+]([O-])cc1,21.1%
4,Cc1onc(-c2ccccc2Cl)c1C(=O)N1CCCCC1C (stereo not drawn),-2.84%
5,O=C1c2ccccc2C(=O)C1c1ccccc1F,-1.72%
6,COc1ccc(CNCc2ccc3c(c2)OCO3)c(OC)c1OC.O=C(O)C(=O)O,1.71%
7,CCN(CC(=O)Nc1c(F)cccc1F)C(=O)Cc1ccc2c(c1)CCC2,6.48%
8,O=C(COC(=O)c1ccccc1F)NC1CC1,-6.55%
9,O=C(Cn1c(C(F)(F)F)nc2ccccc21)Nc1ccccc1N1CCOCC1,-7.87%
10,O=C(NC(=O)c1c(F)cccc1F)Nc1ccccc1SC(F)F,-10.1%
11,CCOC(=O)c1ccccc1NC1OC(=O)c2ccccc21 (stereo not drawn),13.1%
12,COc1cc(CNC2CCCC2)cc(Cl)c1OCc1ccccc1F.Cl,-1.44%
13,CCc1ccc2c(CN3CCC(C(=O)OC)CC3)cc(=O)oc2c1,-45.2%
14,COC(=O)CSc1nc(NC(C)(C)C)nc(N(C)C)n1,-26.3%
15,O=C1NC(c2ccc(Cl)cc2)=COc2ccccc21,10.4%
16,Cc1ccc(-c2csc3ncn(CC#N)c(=O)c23)cc1C,4.94%
17,CN(C)CCN1C(=O)c2oc3ccc(Cl)cc3c(=O)c2C1c1cccc(Br)c1 (stereo not drawn),-45.2%
18,CC(=O)Nc1ccc(-c2csc(NNC(=O)c3ccccc3)n2)cc1,24.7%
19,O=c1[nH]c2c(oc3ccccc32)c(=O)n1Cc1ccccc1,13.8%
20,Cc1ccc(NC(=O)c2cc(=O)[nH]c3ccccc23)cc1C,18.5%
21,Nc1cc(=O)nc(SCC(=O)NCc2ccccc2)n1CCc1ccccc1,-5.55%
22,Cc1ccc(NCc2n[nH]c(=S)n2-c2ccccc2)cc1,15%
23,NC(=O)c1ccc(NCC2CCCO2)c([N+](=O)[O-])c1 (stereo not drawn),12.7%

row,Compound,"hERG current change (%, negative = inhibition) at 10uM"
1,CC(C)(C)C(=O)Nc1ccccc1C(=O)Nc1ccccn1,3.65%
2,COc1ccccc1N1CCN(C(=O)C2CCN(C(=O)c3ccccc3C)CC2)CC1,11.8%
3,CC(C)N1CCN(Cc2cc3ccccc3[nH]2)CC1CCO (stereo not drawn),6.72%
4,C=C(C)COc1ccc(-c2ncncc2-c2ccccc2)c(O)c1,0.141%
5,CCC(C)NC(=O)[C@H]1N2C(=O)c3ccccc3C2SC1(C)C (stereo partly drawn),12.8%
6,CCCCn1c(SCC(=O)NCCOC)nc2ccc(N3CCOCC3)cc2c1=O,-2.94%
7,C=CCn1cccc(C(=O)Nc2cc(OC)ccc2OC)c1=O,1.46%
8,COc1ccc(F)cc1S(=O)(=O)Nc1ccc2c(c1)OCCO2,1.97%
9,O=C(O)CCSCc1ccccc1F,11.4%
10,CCCCN(C(=O)c1ccc(N(C)S(=O)(=O)c2ccc(C)cc2)cc1)c1c(N)n(CCCC)c(=O)[nH]c1=O,0.667%
11,CCOc1ccccc1Nc1nc(N)nc(CSc2nncn2C)n1,11.1%
12,OCCOCC#CCN1CCOCC1,4.12%
13,Cc1ccc(N(CC(=O)N/N=C/c2cc(C)n(-c3ccccc3)c2C)S(C)(=O)=O)c(C)c1,1.03%
14,Cc1cc(-c2c(C)[nH]n(-c3ccccc3)c2=O)n[nH]1,4.25%
15,O=C(COC(=O)/C=C/c1ccc(Cl)cc1)NC1CCCCCC1,-1.22%
16,CCN(CC)c1ccc(NC(=O)Nc2ccc(C(C)=O)cc2)cc1,9.41%
17,CNC(=S)Nc1cccc2[nH]ncc12,-1.27%
18,Cc1c(C(=O)OCC(=O)N2c3ccccc3CC2C)oc2ccccc12 (stereo not drawn),16.5%
19,CCCCOc1ccc(C(=O)OCC(=O)Nc2cc(C)on2)cc1,9.82%
20,C/C(=N/NC(=O)CNC(=O)Cc1ccccc1)c1ccco1,0.676%
21,Cc1ccc(C)c(N(CC(=O)N/N=C/c2ccc(-c3ccc([N+](=O)[O-])cc3)o2)S(=O)(=O)c2ccccc2)c1,11.5%
22,COc1cccc(C(CNC(=O)C(c2ccccc2)c2ccccc2)N(C)C)c1 (stereo not drawn),18.7%
23,Cc1ccc(OC(=O)c2ccc([N+](=O)[O-])cc2Cl)cn1,7.37%

row,Compound,"hERG current change (%, negative = inhibition) at 10uM"
1,COc1ccccc1NC(=O)Nc1nc(CC(=O)NCc2ccc(F)cc2)cs1,-11.4%
2,COc1ccc(/C(C)=N\NC(=O)C(c2ccncc2)N2CCOCC2)cc1 (stereo not drawn),19.1%
3,O=C(COC(=O)c1ccc(O)cc1)Nc1ccccc1,22.4%
4,Cn1c2ccccc2c(=O)c2cc(C#Cc3ccc(N)cc3)ccc21,11.9%
5,CCOC(=O)c1sc(N(Cc2ccccc2)C(=O)COC(=O)c2ccccc2O)nc1C,-5.14%
6,CC(=O)NC(CC(=O)N(C)C1CCCCC1)c1ccccc1 (stereo not drawn),11.2%
7,CC(=O)c1ccc(N(C)C)c2c(N(C)C)cccc12,-36.6%
8,O=C(NCc1ccco1)C1Cc2ccccc2CN1S(=O)(=O)c1ccccc1F (stereo not drawn),-16.4%
9,Fc1ccc(C2=CCN(C(c3ccc(Cl)cc3)c3nnnn3Cc3ccccc3)CC2)cc1 (stereo not drawn),9.9%
10,CCCCn1c(N)c(N(CC(C)C)C(=O)CSc2ccc3c(c2)OCCO3)c(=O)[nH]c1=O,9.84%
11,O=C(NCCc1ccc2c(c1)OCCO2)c1ccccc1F,-10.9%
12,CC(C)(C)NC(=O)c1cccc(NC(=O)Cc2cccs2)c1,-16.7%
13,CC(=O)c1cccc(Nc2nc3ccccc3n3cnnc23)c1,-2.98%
14,COC(=O)Cn1cc(S(=O)(=O)NCc2ccc(C)cc2)c2cc([N+](=O)[O-])ccc21,6.6%
15,N#C/C(=C\c1ccc(N2CCOCC2)cc1)c1ccccc1,8.16%
16,CCOC(=O)C1CCN(C(=O)c2cccc(NS(=O)(=O)c3ccc(Br)cc3)c2)CC1,-39.9%
17,O=C(Cc1ccc(Cl)cc1)NNC(=S)NC(=O)c1cccnc1,21.4%
18,Cc1c(OCc2ccc(C(=O)O)cc2)ccc2c(-c3ccccc3)cc(=O)oc12,36.8%
19,C=CCn1c(O)c(C=NCCN(C)C)c(=O)[nH]c1=O,6.15%
20,O=C(Nc1ccc(Nc2ccccc2)cc1)c1ccc(Cl)c([N+](=O)[O-])c1,10.4%
21,COc1cc2ccccc2cc1-c1nnc(COc2ccccc2)o1,12%
22,CC(C)C(=O)Nc1cccc(NC(=S)NC(=O)c2ccc([N+](=O)[O-])cc2)c1,4.65%
23,Cc1ccc(NC(=O)COC(=O)C(NS(=O)(=O)c2ccc(Cl)cc2)C(C)O)cc1 (stereo not drawn),-24.3%

row,Compound,"hERG current change (%, negative = inhibition) at 10uM"
1,CC(=O)Nc1ccccc1C(=O)OCc1ccc(F)cc1,-0.689%
2,CCCN1CCC(NC(=O)CC2C(=O)NCCN2Cc2ccccc2C)CC1 (stereo not drawn),-2.03%
3,O=C(COC(=O)c1ccc(NS(=O)(=O)c2ccc3c(c2)OCCO3)cc1)NC1CCS(=O)(=O)C1 (stereo not drawn),13.9%
4,CN(C)CCCN(C(=O)c1ccc(S(=O)(=O)N2CCc3ccccc32)cc1)c1nc2ccc(F)cc2s1.Cl,-13.7%
5,CC(C)Cc1ccc(C(C)NC(=O)c2ccc(=O)[nH]c2)cc1 (stereo not drawn),-5.61%
6,COc1ccc(N2CCN(c3nc4ccccc4n3CC(=O)c3ccccc3)CC2)cc1,-33.4%
7,CCCc1cc(N2CCCC(C(=O)Nc3cc(Cl)ccc3OC)C2)n2ncnc2n1 (stereo not drawn),-70.8%
8,COc1cccc(OCC(=O)NNC(=O)CCc2ccccc2)c1,22.6%
9,CN(C(=O)c1cccc(NC(=O)c2ccco2)c1)c1ccccc1,13.3%
10,CC(=O)Nc1ccc(NC(=O)c2cccc(C(=O)OC(C)C)n2)cc1,14%
11,CC(C)(C)CN1CCNC(=O)C1CC(=O)N1CCC(C(=O)N2CCOCC2)CC1 (stereo not drawn),2.07%
12,O=C(c1cnsn1)N1CCC(CO)(Cc2ccc(Cl)cc2)CC1,-43.7%
13,CN1C(=S)SC(N(O)C(=O)NC2CCCCC2)C1(C)C (stereo not drawn),-4.99%
14,Cc1cccc(-c2nnc(-c3ccc(N)cc3)o2)c1,-1.87%
15,Nc1nc(SCC(=O)NCCOCCO)nc2sc3c(c12)CCCC3,4.85%
16,C[C@H](NC(=O)c1nc[nH]c1C(=O)NCCCCCNC(=O)OC(C)(C)C)C(=O)OC(C)(C)C,4.68%
17,Clc1ccc(CON/C=N/c2ncnc3sccc23)c(Cl)c1,6.25%
18,COc1cc2c(cc1NC(=S)NC(=O)c1c(OC)cccc1OC)oc1ccccc12,29.3%
19,COc1cc(OC)c(C2=NOC(C(=O)O)C2)cc1Cl (stereo not drawn),5.14%
20,O=S(=O)(c1ccc(-c2ccon2)s1)N1CCCC1,-6.08%
21,O=C(NCCc1ccc(Cl)cc1)C1CC(=O)N(CCc2ccccc2)C1 (stereo not drawn),-62%
